Results reported in PubChem BioAssay AID1159614 (National Center for Advancing Translational Sciences (NCATS), 2016).
Among all 45,000 compounds or so, about 65 (0.1%) were called active. The call rests on the fitted dose curve; in most records, active means well fitted activation curve with a large enough effect; inconclusive means small, poorly fitted or top-dose-only effect; inactive means no such curve, though single readings can be large or run the other way. The list shows a part of the results.

target: Galactocerebrosidase (Homo sapiens) (UniProt P54803); assay: A Novel Cell-Based Assay to Identify Small Molecules for B -Galactocerebrosidase; settings: 145M-Twi-hGALC-G270D cells (Twitcher mouse brain line with human GALC G270D), HMU-beta-Gal fluorescence, 48 h; series mostly up to 57.5 µM; activation: at the top concentration; further: 0% is about no effect; nearly all actives have a fitted effect of over 65% in size
Chain of UniProt P54803 (P54803 whole entry, looked up): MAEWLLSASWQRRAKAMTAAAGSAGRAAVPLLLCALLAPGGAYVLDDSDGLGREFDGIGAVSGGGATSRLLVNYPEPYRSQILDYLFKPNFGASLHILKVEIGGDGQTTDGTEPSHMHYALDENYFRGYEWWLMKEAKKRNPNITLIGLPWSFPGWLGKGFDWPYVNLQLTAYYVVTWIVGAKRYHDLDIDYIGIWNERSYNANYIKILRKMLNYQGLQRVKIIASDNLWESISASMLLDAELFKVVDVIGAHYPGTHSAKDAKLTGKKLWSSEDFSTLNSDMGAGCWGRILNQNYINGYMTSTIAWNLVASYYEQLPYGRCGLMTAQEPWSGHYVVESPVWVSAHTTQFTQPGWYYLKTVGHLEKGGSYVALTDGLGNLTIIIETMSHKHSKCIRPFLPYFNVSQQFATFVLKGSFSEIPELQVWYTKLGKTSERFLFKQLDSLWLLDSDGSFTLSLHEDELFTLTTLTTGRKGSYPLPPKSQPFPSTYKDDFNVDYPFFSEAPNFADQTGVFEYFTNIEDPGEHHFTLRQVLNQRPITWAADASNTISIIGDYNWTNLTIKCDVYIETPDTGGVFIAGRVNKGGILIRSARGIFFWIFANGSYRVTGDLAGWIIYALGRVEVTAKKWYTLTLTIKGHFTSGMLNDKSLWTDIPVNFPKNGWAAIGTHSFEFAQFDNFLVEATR
Text: Lysosomal storage diseases (LSDs) are caused by genetic mutations in genes encoding proteins important for normal lysosomal function. Globoid cell leukodystrophy (GLD), mostly known as Krabbe disease, is a prototype of the neurological LSDs caused by deficiency of beta-galactocerebrosidase (GALC). In brain specimens of GLD patients, psychosine levels are substantially elevated. At elevated concentrations, psychosine becomes cytotoxic to neuronal cells, particularly to oligodendrocytes (OLG), neural cells responsible for myelin formation. Therefore, the biochemical disturbances in GLD are manifested by different degrees of brain demyelination resulting in a broad spectrum of neurological manifestations. Most of the FDA-approved therapies are based on enzyme replacement therapeutic (ERT) agents, which treat non-neurological symptoms of Gaucher disease, Fabry disease, few mucopolysaccharidoses and Pompe disease. Unfortunately, in GLD, a primarily neurological LSD, ERT agents, as large molecular weight molecules unable to cross the blood-brain barrier, which makes this an inefficacious therapeutic approach. In GLD, increasing the residual GALC activity just above the critical threshold (~10% of wild type enzymatic activity), the cytotoxic levels of psychosine will be reduced, avoiding the OLGs apoptosis and the subsequent demyelination process. This will translate in disease stabilization and amelioration of GLD patient symptoms.
A cell-based assay in 1,536-well plate format was developed to implement a quantitative high-throughput screening (qHTS) assay using GLD-disease relevant cells to identify small molecules that produce enhancements of the residual enzymatic activity levels of mutants GALC found and prevalent in GLD patients. Compounds that are active may therefore have some therapeutic application for GLD. After the treatment of live cells for a determined period, using a fluorescent GALC specific substrate, the mutant residual GALC activity is measured. This cell-based qTHS assay was used to screen part of the MLPCN library for small molecule able to increase the mutant GALC enzymatic activity. In this assay, increased fluorescent signal corresponds to enhanced levels of mutant GALC residual enzymatic activity. Activation is the desired outcome for this assay.
NIH Chemical Genomics Center [NCGC]
NIH Molecular Libraries Probe Centers Network [MLPCN]
Assay Submitter (PI): Gustavo Maegawa MD,PhD, University of Florida, Gainesville, FL
2)#Two cell lines were established for the assay: 145M-Twi-hGALC-G270D (brain-derived Twitcher cell line stably expressing human GALC-G270D) and 145M-Twi-hGALC-WT (same 145M-Twi stably expressing human GALC wild type). The Twitcher is the murine C57B/6 model for GLD with naturally occurring homozygous nonsense GALC mutation. The 145M-Twi cell line was established at Maegawa lab (Ribbens J et al 2014).
a.#Media: DMEM/F12 (1:1) with 10% fetal bovine-serum (FBS) with penicillin/streptomycin (PS-1X - 100 I.U./mL of penicillin+100 ug/mL of streptomycin).
b.#The 6-Hexadecanoylamino-4-methylumbelliferyl-b-D-galactoside (HMU-B-gal) substrate was prepared as per Wiederschain et al 1992. Using 20-mL borosilicate tubes, 2.20 mg of HMU-b-Gal was added in each tube to prepare substrate-film with a final air-nitrogen stream evaporation to remove all diluent solvents.
c.#The HMUb-Gal substrate buffer consists of 0.2 M Na2HPO4 (sodium phosphate dibasic)/ 0.1 M Citric Acid with the pH adjusted to 5.2 using HCl. Sodium Azide at 0.02% and Sodium Taurocholate (NaTC) at 1 mg/mL were added to this substrate buffer.
d.#The HMU-b-Gal stopping buffer consist of 0.5 M NaHCO3 (sodium bicarbonate) /0.5 M Na2CO3 (sodium carbonate). […] Triton X-100 at 0.25% was added.
4)#Preparation of HMU-b-Gal substrate tubes
Adding 18.6 mL of the HMUb-Gal substrate buffer to each 20-mL tube (2.20 mg of HMU-b-Gal) will reach a concentration of 0.2 mM. Vortex well the tube until the solution is fully homogenized (clear cloudy solution). […]

Row | Structure (SMILES) | activation
1 | COc1ccc(NC(=O)c2ccc(-c3nc(COc4ccccc4)c(C)o3)cc2)cc1 | inactive: -6.01%
2 | CCCCSCCCNC(=O)c1cn(CC)c2ccc(S(=O)(=O)N3CCOCC3)cc2c1=O | inactive: -13.1%
3 | Nc1ccc(S(=O)(=O)c2ccc(N)cc2)cc1 | inactive: -6.54%
4 | COc1ccc(S(=O)(=O)N2CCC(C(=O)Nc3ccc(Oc4ccccc4)cc3)CC2)cc1OC | inactive: -4.04%
5 | CCOc1ccc(NC(=O)CSc2nnc3c(C)cc4ccccc4n23)cc1 | inactive: -13.3%
6 | Cc1nn(-c2ccccc2)c2c1N(CCCC(=O)NCc1ccc(OC(C)C)cc1)C(=O)CS2 | inactive: -9.35%
7 | CC1CCc2nc3ccc(S(=O)(=O)N4CCC(C(=O)NCc5ccccc5Cl)CC4)cc3c(C(=O)O)c2C1 (stereo not given) | inactive: 3.96%
8 | Cc1ccc2c(CC(=O)Nc3ccc(S(=O)(=O)N4CCC(C)CC4)cc3)coc2c1 | inactive: -6.53%
9 | CCc1ccccc1NC(=O)Cn1nc(-c2cc(C)ccc2C)c2c(c1=O)CCCC2 | inactive: -6%
10 | O=c1c2[nH]c3ccccc3c2nc(SCc2ccccc2F)n1-c1ccc(F)cc1 | inactive: -22.5%
11 | COC(=O)c1ccccc1NC(=O)Cn1nc(C)c2nn(-c3ccc(Cl)cc3)c(C)c2c1=O | inactive: -6.71%
12 | CCCn1c2ccccc2c2cnn(CC(=O)Nc3ccccc3OC)c(=O)c21 | inactive: 2.07%
13 | OC[C@H]1O[C@@H](Oc2ccc(O)cc2)[C@H](O)[C@@H](O)[C@@H]1O | inactive: -10.8%
14 | COc1cc(NC(=O)Nc2nnc(N3CCCCC3)s2)cc(OC)c1 | inactive: -19.4%
15 | Cc1cccc(NC(c2cccc(Cl)c2)c2ccc3cccnc3c2O)n1 (stereo not given) | inactive: -21.9%
16 | O=C(CSc1nc2c(c(=O)[nH]1)CN(Cc1ccc3c(c1)OCO3)CC2)Nc1cc(F)ccc1F | inactive: -11.5%
17 | Cc1ccccc1OCC(=O)Nc1ccc(OCc2cc(=O)n3ccccc3n2)cc1 | inactive: -4.33%
18 | COc1ccc(Cl)cc1NC(=O)C1CCCN(S(=O)(=O)c2ccc3c(c2)CCCC(=O)N3)C1 (stereo not given) | inactive: -31.5%
19 | Cc1ccc(CNC(=O)c2ccc3oc(=O)n(Cc4ccccc4)c3c2)cc1 | inactive: -6.88%
20 | COc1ccc(-c2cn3nc(N4CCCC(C(=O)Nc5ccccc5F)C4)sc3n2)cc1 (stereo not given) | inactive: -14%

Row | Structure (SMILES) | activation
21 | Cc1nn(CC(=O)Nc2ccc(C(C)C)cc2)c(=O)c2c(C)n(-c3ccc(Cl)cc3)nc12 | inactive: -7.92%
22 | COc1ccc(NC(=O)CSc2nccn2C2CCCC2)cc1OC | inactive: -2.77%
23 | CCOc1ccccc1N(C)C(=O)c1sc2nc3n(c(=O)c2c1C)CCCC3 | inactive: -14.4%
24 | CCCCN(CCCNC(=O)c1cc(Nc2ccc(OC)cc2OC)nc2ccccc12)Cc1ccccc1 | inactive: -2.95%
25 | CCCCOC(=O)c1ccc(NC(=O)C2(c3cccs3)CCOCC2)cc1 | inactive: -13.6%
26 | COc1ccc(-c2nnc(SCC(=O)Nc3cccc(C)c3)s2)cc1 | inactive: -8.35%
27 | CC(=O)N1CCc2cc(CNS(=O)(=O)c3cccs3)ccc21 | inactive: 1.98%
28 | COc1ccc(NC(=O)CSc2nc(-c3ccccc3)cc(-c3cc(OC)c(OC)c(OC)c3)c2C#N)c(OC)c1 | inactive: -9.24%
29 | CCOC(=O)c1c(NC(=O)CSc2cn(CCNC(=O)c3ccc(OC)cc3)c3ccccc23)sc2c1CCC2 | inactive: -11.9%
30 | COc1ccccc1N1CCN(S(=O)(=O)CCNC(=O)c2cc(=O)c3ccccc3o2)CC1 | inactive: 0.915%
31 | CC(C)(Oc1ccc(Cl)cc1)C(=O)Nc1ccc(-c2nc3ncccc3o2)cc1 | inactive: -6.19%
32 | Cc1ccc(Cn2cc(S(=O)(=O)c3ccccc3)c(=O)c3cc(F)c(N4CCOCC4)cc32)cc1 | inactive: -10.2%
33 | COc1ccc(NC(=O)C(c2ccc(OC)cc2)N(C)C(=O)Cc2cccs2)cc1 (stereo not given) | inactive: -21.1%
34 | Cn1ccc2cc(S(=O)(=O)N3CCN(C(=O)Nc4cccc(F)c4)CC3)ccc21 | inactive: -0.644%
35 | COc1ccc2c(c1)c1c3n2CCN(C)C3=NCC1 | inactive: -11%
36 | CC(C)C(C)(C)C(C)(C)C(C)(C)S | inactive: -5.6% [at 114 µM]
37 | COc1ccc(C(CNC(=O)COc2cc(C)c(Cl)c(C)c2)N2CCCCC2)cc1 (stereo not given) | inactive: -10.8%
38 | Cc1ccccc1C(=O)Nc1cccc(-c2nc3cccnc3s2)c1 | inactive: -3.98%
39 | CCCN(CCC)C(=O)c1c[nH]c2ccc(S(=O)(=O)N(C)c3ccc(Cl)cc3)cc2c1=O | inactive: -10.8%
40 | OCCN1CCN(CCCN2c3ccccc3Sc3ccc(Cl)cc32)CC1 | inactive: -5.68%

Row | Structure (SMILES) | activation
41 | COc1ccc(Cn2ccc3nc(C)c(C(=O)Nc4ccc(OC)c(OC)c4)cc3c2=O)cc1 | inactive: -8.85%
42 | O=C(CSc1nc(=O)n(Cc2ccncc2)c2c1CCC2)Nc1ccccc1 | inactive: -11.3%
43 | COc1cccc(N2CCN(C(=O)CCn3nc(C)c(S(=O)(=O)N4CCCC4)c3C)CC2)c1 | inactive: -8.37%
44 | CCn1cc(C(=O)N2CCN(c3ccccc3OC)CC2)c2cc(OC)c(OC)cc2c1=O | inactive: -10.9%
45 | N[C@H]1C(O)O[C@H](CO)[C@@H](O)[C@@H]1O (stereo not given in full) | inactive: -8.77%
46 | CCc1ccc(OCC(=O)Nc2c(C(=O)c3ccc(Br)cc3)oc3ccccc23)cc1 | inactive: -10.5%
47 | CCC(Oc1ccccc1)C(=O)Nc1nnc(S(=O)(=O)N2CCCC2)s1 (stereo not given) | inactive: -6.05%
48 | CCOc1cccc2sc(=NC(=O)c3ccc(S(=O)(=O)N4CCOCC4)cc3)n(C)c12 | inactive: 1.61%
49 | CCc1ccc(NC(=O)c2ccc(CNS(=O)(=O)c3ccc4c(c3)C(C)(C)C(=O)N4C)cc2)cc1 | inactive: -9.61%
50 | CCOC(=O)c1cnc2c(OC)cccc2c1N1CCN(c2ccccc2F)CC1 | inactive: -31.5%
51 | COc1ccc(CCNC(=O)CCCCn2c(=O)c3ccccc3n(Cc3cccc(C)c3)c2=O)cc1OC | inactive: -14.9%
52 | CCOc1ccc(CCNc2ncnc3onc(C)c23)cc1OCC | inactive: -13.8%
53 | COc1ccc(CNC(=O)c2ccc(-c3nc(CSc4ccccc4)c(C)o3)cc2)cc1 | inactive: -9.86%
54 | COc1ccc(C(=O)Nc2ccc3c(c2)CCCN3S(=O)(=O)c2ccc(C)cc2)cc1 | inactive: -1.06%
55 | COc1ccc(NC(=O)c2oc3ccccc3c2NC(=O)c2cc(=O)c3ccccc3o2)cc1 | inactive: -7.99%
56 | CCCCN(CCCC)CCn1cnc2c([nH]c3ccc(OC)cc32)c1=O | inactive: 0.464%
57 | Cc1ccc2c(c1)-c1nc(-c3ccccc3)cc(-c3ccccc3)c1CO2 | inactive: -12.3%
58 | C=C1C[C@H]2[C@@H]3C=C(C)C4=CC(=O)CC[C@]4(C)[C@H]3CC[C@]2(C)[C@@]1(OC(C)=O)C(C)=O | inactive: -9.99%
59 | CCc1ccc(-c2nc(CN3CCCC(C(=O)NCc4ccccc4Cl)C3)c(C)o2)cc1 (stereo not given) | inactive: -2.71%
60 | COc1cc(C(=O)N(CCCN(C)C)c2nc3c(OC)cccc3s2)cc(OC)c1OC | inactive: -5.43%
